Test results published in PMC6451091.
The other results are listed elsewhere or left out. For some assays here: At the low end of the ranking the order means little. For some assays here: Measured with an extract: partners may take part in the binding.

Legend:
Conditions in all cases: 20 mM HEPES pH 7.9, 100 mM NaCl, 1 mM DTT, 0.2 mg/mL BSA, 0.02% Triton X-100, 2% milk, 0.4 mg/mL salmon testes DNA; 1 h; temperature not stated; high values mean tight binding; double strand, one strand shown; sequences stand for … in GCCTAGCAC…GTGCTAGGTCTTGATTCGCTTGACGCTGCTG
PU.1 (IVT) = PU.1 (IVT) (UniProt P17947); test: protein-binding microarray (PBM)
[1] = target: PU.1 (endogenous, THP-1 nuclear extract) (UniProt P17947); test: nuclear extract protein-binding microarray (nextPBM)
[2] = target: T1, FLI1 (endogenous, THP-1 nuclear extract) (UniProt Q01543); test: as above
T1 sequence: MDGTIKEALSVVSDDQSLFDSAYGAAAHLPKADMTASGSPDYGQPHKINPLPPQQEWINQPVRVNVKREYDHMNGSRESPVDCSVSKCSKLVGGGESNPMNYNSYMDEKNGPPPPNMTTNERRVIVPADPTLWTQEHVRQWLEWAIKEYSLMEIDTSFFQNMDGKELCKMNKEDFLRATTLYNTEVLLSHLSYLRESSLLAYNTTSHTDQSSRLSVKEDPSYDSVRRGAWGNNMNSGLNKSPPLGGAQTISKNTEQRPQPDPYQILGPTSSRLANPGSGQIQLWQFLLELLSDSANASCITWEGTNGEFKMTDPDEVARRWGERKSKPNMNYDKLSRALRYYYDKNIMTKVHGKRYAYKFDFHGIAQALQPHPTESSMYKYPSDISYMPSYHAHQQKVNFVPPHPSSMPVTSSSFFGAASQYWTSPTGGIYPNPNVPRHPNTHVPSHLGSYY

[3] = test system: PU.1 (endogenous, THP-1 nuclear extract) + IRF8 (endogenous, THP-1 nuclear extract); test: as above

Sequence | binding signal (PU.1 (IVT)) [z-score] | binding signal [1] [z-score] | binding signal [2] [z-score] | binding signal [3] [z-score]
CAAACAGGAAACCAGTTTAC | 1.07 | 1.23 | 4.15 | 0.969
GGTGGAACCCTCGAATTCTT | -0.117 | -0.466 | -0.67 | -0.136
TATTCATATGCGGGCAGGAA | 3.5 | 3.24 | 5.71 | -0.0462
GATAAAATTCAAACCTTCAA | 0.752 | -0.267 | -0.161 | -0.203
TGTTTGACTTGGTGATCTCT | -0.467 | -0.549 | -0.342 | -0.571
AACTCTTGCTTTTAAGGAGC | -0.338 | -0.281 | -0.3 | -0.746
CACCGCGGACTCTGCTCCGG | -0.538 | -0.429 | -0.0947 | 0.305
CTTCAGAATCCTCTTTTATG | 0.78 | 0.302 | 0.265 | 0.438
CTGCCAGCTGCGTGAAAGCA | -0.251 | -0.458 | -0.132 | 0.191
AGTTGGGGAAGGGTGGGGCG | 0.171 | -0.0569 | 0.478 | -2.02
CACTTTCAGGGCCCCTGCTG | -0.716 | -0.294 | -0.482 | 1.18
TAGATGACTGCGTGAAACTC | -0.412 | -0.526 | -0.434 | 0.677
TCTTGTAAAGCTTTTCCAAT | -0.135 | -0.442 | -0.048 | 0.719
TGAAATAATCCTGAGCTTTT | -0.456 | -0.431 | -0.236 | -0.0178
GCTTAGTCAGCATGGGTTCT | -0.41 | -0.327 | -0.289 | 0.973
GAAATGACTGCATGAAACCA | -0.622 | -0.41 | -0.473 | 1.9
AGCCCCAAGGCCGCTTGCCC | -0.923 | -0.428 | -1.37 | 2.13
GAAGAGCATGGGCAGGATGG | -0.755 | -0.398 | 1.28 | 2
TGAAAGCCAGAGAGGGCAGG | -0.273 | -0.417 | -0.0299 | 0.831
TATAAGAGGAACTGAAAGCT | 3.33 |  | 1.58 | 3.85
CAGAGAAGATAACCGCCAGT | -0.444 | -0.158 | 0.182 | -0.0534
AGAAAGAGGAAGCGAAACTC | 5.78 |  | 3.95 | 72.3
